The record followed here is article PMC4336329 (PLoS ONE, 2015).

Structures are written as SMILES. The whole screen tested about 310,000 compounds, of which about 14,000 (4.5%) showed an effect of 50% or more. Effects have a minus sign here. Some of the results follow.
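Further: peak tail current of the secondary pulse compared with the same well before compound.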

The target in the test is human ether-à-go-go-related gene (hERG) potassium channel (human, UniProt Q12809). The test is described as follows: primary screen, population patch clamp on CHO cells stably expressing hERG.
Chain of human ether-à-go-go-related gene (hERG) potassium channel (Q12809 whole entry, looked up): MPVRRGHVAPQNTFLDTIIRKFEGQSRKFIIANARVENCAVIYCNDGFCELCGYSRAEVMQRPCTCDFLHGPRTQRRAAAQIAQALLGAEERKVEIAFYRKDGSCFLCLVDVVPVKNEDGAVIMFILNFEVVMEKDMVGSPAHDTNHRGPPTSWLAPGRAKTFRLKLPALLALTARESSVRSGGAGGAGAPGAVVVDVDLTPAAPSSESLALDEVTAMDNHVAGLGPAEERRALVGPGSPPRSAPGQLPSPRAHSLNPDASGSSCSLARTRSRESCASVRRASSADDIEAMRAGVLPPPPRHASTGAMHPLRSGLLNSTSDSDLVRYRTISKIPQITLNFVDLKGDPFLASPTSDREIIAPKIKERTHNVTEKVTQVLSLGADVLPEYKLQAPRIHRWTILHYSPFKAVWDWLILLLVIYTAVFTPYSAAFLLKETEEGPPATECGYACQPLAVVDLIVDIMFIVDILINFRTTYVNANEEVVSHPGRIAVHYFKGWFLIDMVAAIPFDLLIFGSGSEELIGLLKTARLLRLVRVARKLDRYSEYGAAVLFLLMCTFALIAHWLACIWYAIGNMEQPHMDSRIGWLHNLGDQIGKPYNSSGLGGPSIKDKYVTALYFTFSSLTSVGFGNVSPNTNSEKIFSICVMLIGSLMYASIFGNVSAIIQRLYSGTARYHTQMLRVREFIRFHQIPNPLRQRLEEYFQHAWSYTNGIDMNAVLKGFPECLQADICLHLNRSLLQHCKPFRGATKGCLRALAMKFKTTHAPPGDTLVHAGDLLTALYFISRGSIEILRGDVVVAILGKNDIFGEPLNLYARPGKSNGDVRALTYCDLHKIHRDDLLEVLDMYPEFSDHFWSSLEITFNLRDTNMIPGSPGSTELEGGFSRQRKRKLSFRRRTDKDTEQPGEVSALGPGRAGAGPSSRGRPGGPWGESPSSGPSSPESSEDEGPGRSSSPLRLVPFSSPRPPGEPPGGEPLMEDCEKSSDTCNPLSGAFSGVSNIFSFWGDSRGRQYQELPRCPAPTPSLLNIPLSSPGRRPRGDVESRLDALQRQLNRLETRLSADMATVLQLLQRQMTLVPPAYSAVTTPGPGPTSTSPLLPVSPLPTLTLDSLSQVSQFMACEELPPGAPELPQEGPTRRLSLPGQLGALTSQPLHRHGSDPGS
Turning to `NC(=O)OCC(COC(N)=O)c1ccccc1.O`, the “hERG current change (%, negative = inhibition) at 10uM” value stood at 1.48%. As for `COc1ccc(OC)c(-c2nc(C)sc2CC(=O)O)c1`, the figure is 5.21%. On to `CSc1nsc(SCC(=O)N2CCCCC2)n1`, for which the “hERG current change (%, negative = inhibition) at 10uM” value amounted to 4.18%. As for `CC(=O)Nc1ccc(NC(=O)c2ccc(-c3ccc([N+](=O)[O-])cc3)o2)cc1`, the figure is -14.5%; as for `O=C(CN1C(=O)NC(Cc2ccccc2)(Cc2ccccc2)C1=O)NCC1CCCCC1`, -16.7%; as for `COCCn1c(-c2ccccc2)nc2c(c(=O)c3ccccc3n2C)c1=O`, 7.78%. As for `Nc1nonc1/C(=N/O)N1CCCC1`, the figure is 7.07%; as for `CC(C)N(C(=O)CSc1ccc(S(=O)(=O)N2CCCCC2)cn1)C(C)C`, -15.7%. As for `COc1ccc(NS(=O)(=O)c2ccc(-c3n[nH]c(=S)n3Cc3ccccc3)cc2)cc1`, the figure is -25.3%; as for `O=C(O)C(=O)O.c1ccc(CNC23CC4CC(CC(C4)C2)C3)nc1`, 15.3%; as for `C/C(NCCCn1ccnc1)=C(\C#N)C(N)=O`, -1.85%. In the case of `Cc1cc(C)n2c(Br)c(CSc3nc4ccccc4o3)nc2n1`, the “hERG current change (%, negative = inhibition) at 10uM” value is reported as -63.9%. As for `Cc1ccc(S(=O)(=O)N2CCCC2CNC(=O)c2ccc(F)c(F)c2)cc1` (stereo not shown), the figure is -52.5%; as for `COC(=O)C1=C(c2ccc(C(C)=O)cc2)C[C@@H]2CC[C@H]1N2C(=O)NCCOc1ccccc1Cl`, -29.1%. As for `O=C(Cc1ccccc1)Nc1ccccc1CO`, the figure is 10.6%; as for `CC(NC(=O)CCNC(=O)c1ccc(Br)cc1)c1ccc(-n2ccnc2)cc1` (stereo not shown), -66.5%. Take `CCCC(=O)NC(=S)Nc1cc(-c2nc3ncccc3o2)ccc1C`: the “hERG current change (%, negative = inhibition) at 10uM” value is recorded as -12%. `c1ccc2c(c1)Cc1ccccc1O2`: the “hERG current change (%, negative = inhibition) at 10uM” value came to 14.7%. As for `COc1ccc([C@H]2/C=C\CN(S(=O)(=O)c3ccc4ccccc4c3)[C@@H](C)C(=O)N2Cc2ccc(F)cc2)cc1`, the figure is 6.43%; as for `Cc1cccc(NC2(C(F)(F)F)N=C(c3ccccc3)NC2=O)n1` (stereo not shown), -1.67%.

Regarding `COc1ccccc1NC(=O)CSC1CC(=O)N(c2ccc3c(c2)OCO3)C1=O` (stereo not shown), the “hERG current change (%, negative = inhibition) at 10uM” value turned out to be 8.65%. `CCCCn1c(=O)c(C(=O)N/N=C/c2ccc(F)cc2)c(O)c2ccccc21`: the “hERG current change (%, negative = inhibition) at 10uM” value was determined as 20.1%.

As for `CC(=O)OC(Cn1ccnc1)c1ccccc1.Cl` (stereo not shown), the “hERG current change (%, negative = inhibition) at 10uM” value is recorded as 5.17%.

For `Nc1nnc(SCC(=O)N2CCc3ccccc32)n1-c1ccccc1`, the “hERG current change (%, negative = inhibition) at 10uM” value is 6.94%.

Regarding `Cc1nc(NC(=O)CSc2nnc(C3CC3)n2C)sc1C(=O)N(C)C`, the “hERG current change (%, negative = inhibition) at 10uM” value was 17.5%.
